The other results are listed elsewhere or left out. Further columns of the screen follow, without active or inactive calls. Compounds called inactive in the main read-out are mostly missing here.
Experiment: growth inhibition of WT strain, primary screen, mitochondrial fusion inhibitor project, WT and mutant strains, chemical genetic (AID 1362); further: tested in S. cerevisiae
Conditions: mitochondrial fusion phenotypic screen, at 10 µM

Compound	inhibition
COc1ccccc1NC(=O)c1cccc(NC(=O)c2ccco2)c1	-17%
O=C(NC1CCCCC1)N1CCSC1=Nc1ccccc1	33.8%
CCNc1nc(NCC)nc(SCCOc2ccc(C)cc2)n1	82.4%
CN1N=C(c2ccc(F)c(F)c2)CSC1=NCc1ccccc1	48.5%
COc1ccccc1CNC(=O)c1ccccc1OCc1ccc(F)cc1	12%
O=C(C1CCCCC1)N(Cc1nc2sc3c(c2c(=O)[nH]1)CCCC3)Cc1cccs1	26.7%
C=CCSc1nc2c(c(C3CC=CCC3)c1C#N)CCC2 (centres undefined)	-8.51%
CCCc1nc2c(=O)n(C)c(=O)nc-2n(C)n1	59.4%
O=C(Nc1ccc(Br)c(C(F)(F)F)c1)c1ccccc1	44%
COc1cccc(-c2cc3nc4c(c(N5CCC6(CC5)OCCO6)n3n2)CCC4)c1	46.8%
COc1ccc2c(c1)CCc1c-2n[nH]c1C(=O)O	-9.55%
CCOc1ccc(Oc2c(/C=N/NC(=O)COc3ccccc3OC)c(C)nn2-c2ccccc2)cc1	6.66%
O=C(Nc1ccc(S(=O)(=O)N2CCN(Cc3ccccc3)CC2)cc1)c1cnccn1	16.4%
C/C(=N\Nc1cc(-c2ccccc2)nc(-c2ccccc2)n1)c1ccc(O)c(C)c1	34.3%
CCCCc1ccc(/C=C2\C(=O)c3ccccc3C(O)=C2C(=O)OCC)cc1	47.6%
Cc1nc(N2CCCCC2C)c2c(C)c(C(=O)Nc3cccc(C(F)(F)F)c3)sc2n1 (centres undefined)	-3.49%
CC(=O)Nc1ccc(S(=O)(=O)NCCC(=O)OCCN2C(=O)c3ccccc3C2=O)cc1	31.1%
Cc1ccc(Nc2nc(N)c([N+](=O)[O-])c(N3CCCC(C)C3)n2)cc1C (centres undefined)	93.2%
CC1=NNC(=O)/C1=C\c1cn(-c2ccccc2)nc1-c1ccc(F)cc1	79.3%
CN(C)c1ccc(C(=O)c2ccc(N(C)C)c3ccccc23)cc1	21.4%
CCCCCn1c(CN2CCN(c3cc(Cl)ccc3C)CC2)nc2c1c(=O)[nH]c(=O)n2C	35.8%
Cc1c(Cl)cccc1NC(=S)NCCc1ccc(C(F)(F)F)cc1	76%
OC1CCCN(c2c3c(nc4cc(-c5cccc(F)c5)nn24)CCCC3)C1 (centres undefined)	29.8%
COc1cc(/C=C2\SC(=S)N(Nc3ncc(C(F)(F)F)cc3Cl)C2=O)ccc1O	62.9%
CCCC[C@@H]1CNC(=S)N1CCC12CC3CC(CC(C3)C1)C2	63%
Oc1ccccc1/C=N/Nc1ccccc1	62.1%
Cc1cc(C)n(CCc2nc(-c3ccc(C(C)(C)C)cc3)cs2)n1	24.8%

Compound	inhibition
Cc1ccc(C(C)C)c(OCCNC(=S)Nc2cccc3ccccc23)c1	21.4%
Cc1ccc(-c2cc(-c3n[nH]c(=S)n3C)c3ccccc3n2)cc1	28.6%
CC(C)NC(=S)N/N=C/C1=CCC2CC1C2(C)C (centres undefined)	48.2%
CCOC(=O)N(C)OC(=O)Nc1ccc(Cl)c(Cl)c1	25.4%
COc1ccccc1NC(=S)NCCSc1ccc(C)cc1	65.8%
CC(C)(C)[C@H]1C=C(C(=O)N2CCN(Cc3ccccc3)CC2)O[C@@H](OCc2ccc(CO)cc2)C1	13.2%
O=C(CCC1N=C2c3ccccc3N=C(SCc3cccc(Cl)c3)N2C1=O)NCc1ccco1 (centres undefined)	1.64%
COc1cc2nc(C3CCC3)nc(N3CCN(c4ccccc4OC)CC3)c2cc1OC	78.9%
COC(=O)CSc1nc2cc3c(cc2cc1C)OCO3	68.1%
S=c1[nH]c(-c2ccccc2)cn1/N=C/c1cccc2ccccc12	56.7%
Cc1nc(NC(=O)c2ccco2)sc1-c1csc(Nc2ccc(Cl)cc2Cl)n1	35%
O=C(CNC(=S)N(Cc1ccccc1)Cc1ccccc1F)NCCc1ccc(Cl)cc1	0.53%
CC(C)N(C(=S)NC1CCCCC1)c1ccccc1	6.5%
Clc1ccc(Nc2ncnc3ccc(Br)cc23)cc1	43.1%
COc1ccc(CSCCNC(=S)Nc2ccccc2)cc1Cl	45.6%
Cc1cc(C)c(S(=O)(=O)N2CCC(C(=O)NCc3ccc(Cl)cc3Cl)CC2)c(C)c1	73%
Cc1cc(C)cc(OCCCOc2cccc3cccnc23)c1	66%
Clc1cc(Cl)cc(C2=NCCC(c3ccccc3)O2)c1 (centres undefined)	28.3%
O=C(Nc1ccccn1)c1csc2c1CCCC2	58%
O=C(CSc1nnc2n1CCCN2C(=S)Nc1ccc(Cl)cc1)c1ccccc1	38.1%
Cc1ccc(Sc2ccc(NC(=O)CCl)cc2)cc1C	21.6%
c1ccc(-c2csc3ncnc(NCC4COc5ccccc5O4)c23)cc1 (centres undefined)	45.6%
CCOc1cccc(CNc2ccc(O)cc2)c1OCc1ccc(Cl)cc1Cl	30.3%
O=[N+]([O-])c1ccc(N/N=C/c2c[nH]c3ccccc23)c(S(=O)(=O)Nc2ccc(Cl)cc2)c1	89.7%
O=C(NC1CCS(=O)(=O)C1)c1ccc(-c2ccc(Br)cc2)o1 (centres undefined)	8.91%
Cc1cccn2cc(CSc3nnc(Nc4ccc(C(C)C)cc4)s3)nc12	25.1%
CC(C)(C)c1ccc(NC(=O)CNC2CCCc3ccccc32)cc1 (centres undefined)	64.3%
